The campaign covered roughly 46,000 compounds. About 60 (0.1%) were called active. Not shown: some 3% with an inconclusive outcome. The call rests on the fitted dose curve; in most records, active means well fitted inhibition curve with a large enough effect; inconclusive means small, poorly fitted or top-dose-only effect; inactive means no such curve, though single readings can be large or run the other way. The list shows a part of the results.
Experiment: Primary qHTS assay for Inhibitors of ovarian cancer metastasis using an organotypic tumor microenvironment (TME) model. Further: nearly all actives have a fitted effect of over 65% in size.
Details: SKOV3ip1-GFP adhesion/invasion on 3D omental model, fluorescence; series mostly up to 45.8 µM; activity change, negative = inhibition: at the top concentration
Description: PI: Ernst Lengyel MD., Ph.D. Department of Obstetrics and Gynecology, Section of Gynecologic Oncology University of Chicago Medicine, Chicago, Illinois. The tumor microenvironment (TME) is a key determinant of metastatic efficiency. We performed a quantitative high-throughput screen (qHTS) of diverse medicinal chemistry tractable scaffolds (44,420 compounds) and pharmacologically active small molecules (386 compounds) using a layered organotypic, robust assay representing the ovarian cancer metastatic TME. This 3D model contains primary human mesothelial cells, fibroblasts, and extracellular matrix, to which fluorescently labeled ovarian cancer cells are added. Initially, 100 compounds inhibiting ovarian cancer adhesion/invasion to the 3D model in a dose-dependent manner were identified. Of those, eight compounds were confirmed active in five high-grade serous ovarian cancer cell lines and were further validated in secondary in vitro and in vivo biological assays. […] Specifically, NCGC00117362 and PP-121 inhibited ovarian cancer adhesion, invasion, and proliferation, whereas milciclib inhibited ovarian cancer invasion and proliferation. […] To evaluate the clinical potential of NCGC00117362, structure - activity relationship studies were performed. […] The three compounds identified have promise as therapeutics for prevention and treatment of ovarian cancer metastasis.
PROTOCOL TABLE (as described by Inglese J, Shamu CE and Guy RK. 2007) SEQUENCE No. (e.g., 1, 2, 3, etc.); […] (e.g., Cells, Incubation, Reagent, etc.); VALUE; DESCRIPTION. 1; Cells; 4 uL; primary human omental fibroblast, black, clear bottom, low base, 1536-well Aurora assay plate. 2; Incubation; 48 hr; 37C. 3; Cells; 3 uL; 1,200 SKOV3ip1-GFP cells. 4; Compounds; 23nL; acoustic dispenser. 5; Incubation; 2 hr; room temperature. 6; Incubation; 16 hr; 37C. 7; Wash; 5 uL; 1x PBS. 8; Fixing; 5 uL; 4% paraformaldehyde (PFA). 9; Incubation; 15 min; room temperature 10; Wash, 5 uL; 1x PBS. 11; Detection; Fluorescence, excitation filter 488 nm, emission filter 509 nm. NOTES (numbers refer to Sequence numbers above) 1. For the 1,536-well format, 40 primary human omental fibroblasts and 400 mesothelial cells were seeded with 0.02 µg fibronectin and 0.02 µg collagen type I in 4 µL of growth media (2.3 mm2; Supplementary Fig. S1A). 2. Assay plates were incubated for 48 hours at 37 C. 3. After incubation, 1,200 SKOV3ip1-GFP were seeded in 3 µL of serum-free media (growth media minus FBS) on top of primary human omental cells. 4. Compounds or controls were added to each well immediately after the addition of the cancer cells. Compounds were screened in four doses (0.36-46 µmol/L), and the plates contained the positive control (Tomatine) in eight doses (0.035-75 µmol/L) and DMSO (equal volume controls) 5 - 6. The plates were incubated at room temperature for 2 hours and then at 37 degrees C for 16 hours. 7 - 10. Following incubation, the media were aspirated and each well washed with PBS (5 µL) and then fixed with 4% paraformaldehyde (PFA; 5 µL). After 15 minutes, the PFA solution was aspirated, PBS (5 µL) was added. 11. The number of GFP-labeled cells analyzed using a fluorescent cytometer TTP LabTech Acumen eX3 using 488 nm excitation filter and 509 nm emission filter. Data was normalized to the DMSO treated for negative and Tomatine treated wells for positive control. REFERENCES: Inglese J, Shamu CE and Guy RK, Reporting data from high throughput screening of small molecule libraries, Nature Chemical Biology, 2007, 3(8): 438-441. doi.org/10.1038/nchembio0807-438. Yasgar A, Shinn P, Jadhav A, Auld DS, Michael S, Zheng W, Austin CP, Inglese J and Simeonov A, Compound Management for Quantitative High-Throughput Screening. J. Assoc. Lab. Auto., 2008, 13: 79-89. doi: 10.1016/j.jala.2007.12.004.

outcome, inactive:
CCN(CC)c1nn2c(=O)c(C(=O)NCCc3ccccc3)cnc2s1
Fc1ccc(-c2noc3ncnc(N4CCN(c5ccccc5)CC4)c23)cc1
Cc1ccc(CCNC(=O)c2ccc3c(c2)N(Cc2cccc(C)c2)C(=O)c2ccccc2S3(=O)=O)cc1
CC(C)c1ccc(NC(=O)c2cc3c(s2)-c2ccccc2SC3)cc1
COCCc1nn2c(=O)cc(COC(=O)c3ccc4c(c3)OCO4)nc2s1
CCS(=O)(=O)N1CCc2cc(C(=O)NCc3ccc(OC)cc3)ccc21
Cc1ccc(C)c(N2CCN(C(=O)C3CCN(c4nc(-c5ccc(C(C)C)cc5)no4)CC3)CC2)c1
CC(C(=O)Nc1cccc(C#N)c1)n1nc(-c2ccccc2)c2c(c1=O)CCCC2 (centres undefined)
CCOc1ccc(C2CC(=O)n3nc(-c4ccc(C)cc4)nc3S2)cc1OC (centres undefined)
O=C(CN1CCN(S(=O)(=O)c2cc(Cl)ccc2Cl)CC1)Nc1cccc(F)c1
O=C(Nc1ccc(NC(=O)c2cc3ccccc3o2)cc1)c1ccccc1
O=C(Nc1ccc(Cl)cc1Cl)c1cc(S(=O)(=O)N2CCN(c3ccccc3F)CC2)ccc1F
Cc1ccc(-c2cc3ncc(C(=O)c4cc([N+](=O)[O-])ccc4O)cn3n2)cc1
CCc1ccc(-n2c(C)nnc2SCc2nc(-c3ccc(OC)cc3)no2)cc1
CN(Cc1ccccc1)c1nc(-c2ccc(F)cc2)cc(C(F)(F)F)n1
CCCCN(C)CCNC(=O)c1cc(-c2cccnc2)nc2ccc(S(=O)(=O)N3CCC(C)CC3)cc12
COc1ccc(Br)cc1CNC(=O)CCCn1c(=O)c2cccn2c2ccccc21
COc1cc(NC(=O)c2noc3c2CCc2ccccc2-3)cc(OC)c1OC
CCCN(CCC)C(=O)Cn1c(=O)n(Cc2ccc(C(=O)NCCc3ccc(OC)c(OC)c3)cc2)c(=O)c2ccccc21

Activity change, negative = inhibition, inactive:
Cc1cc2c(cc1S(=O)(=O)NCc1ccccc1Cl)OCCN2C 6.97%
O=C(NCc1ccc(F)cc1)c1ccc2c(Cl)c3c(nc2c1)CCCC3 5.77%
COc1ccc(S(=O)(=O)N2CCN(c3ccccc3F)CC2)cc1-c1noc(C)n1 -0.639%
CCOC(=O)c1c(-c2ccccc2)oc2ccc(N(C(C)=O)S(=O)(=O)c3cc(C)ccc3C)cc12 13.7%
Cc1cc(C)cc(NC(=O)N2CCC(N3CCCCC3)CC2)c1 2.58%
CCOC(=O)c1[nH]c(C)c(CCC(=O)NCc2ccccc2)c1C 9.38%
COc1ccc(OC)c(NC(=O)Cc2coc3ccc(C(C)C)cc23)c1 -28.3%
COc1ccc(NC(=O)C2CCN(S(=O)(=O)c3ccc4[nH]c(=O)ccc4c3)CC2)c(OC)c1 7.77%
Cc1cn2c(=O)cc(COc3cccc(NC(=O)c4ccccc4C)c3)nc2s1 8.62%
CC(=O)N1CCOc2cc(S(=O)(=O)Nc3cccc(C(F)(F)F)c3)c(Cl)cc21 3.96%
CCc1cccc(-n2c(C)nc3c(cnn3-c3ccc(Cl)cc3)c2=O)c1 -27.6%
CCOC(=O)c1ccccc1NC(=O)C(=O)Nc1ccc2nc3n(c(=O)c2c1)CCCCC3 -5.64%
CCc1c(C)nc(SCC(=O)N2CCN(c3ccccc3OC)CC2)[nH]c1=O -12.3%
CCOc1ccc(CNC(=O)C2CCN(c3nnc(-n4cccc4CNc4ccc(C)cc4)s3)CC2)cc1OC -5.32%
Cc1cccc(-c2nc(S(=O)(=O)c3ccc(F)cc3)c(N3CCN(c4ccccc4)CC3)o2)c1 5.46%
CCOC(=O)c1c(C)[nH]c(CCC(=O)NCCCN2CCN(c3ccc(F)cc3)CC2)c1C 0.229%
CCOC(=O)c1ccccc1NC(=O)Cn1cc(C(=O)c2cccc(OC)c2)c(=O)c2ccc(C)nc21 2.73%
COc1cc2c(cc1OC)C(COc1ccccc1OC)N(C(=O)CC(C)C)CC2 (centres undefined) -8.36%
CCc1ccc(N=C2NC(=O)CC(C(=O)Nc3ccc(OC)cc3)S2)cc1 (centres undefined) -1.39%
O=C(CN1C(=O)COc2ccc(S(=O)(=O)N3CCCCCC3)cc21)NCc1ccc(Cl)cc1 -0.384%
Cc1cc(=O)[nH]c2nnc(SCC(=O)NC(C)(C)C)n12 -5.52%
CCc1c(C)sc2c1CCN(Cc1cccc(F)c1)C2c1ccccc1 (centres undefined) 21.1%
CCc1ccc(-c2cn3c(n2)sc2cc(C(=O)NC4CCCCCC4)ccc23)cc1 1.38%
CC(=O)N1CCc2cc(CNS(=O)(=O)c3ccc(F)cc3)ccc21 -10.9%
Cc1ccc(S(=O)(=O)c2nc(-c3ccccc3F)oc2N2CCCCC2)cc1 -1.93%
Cc1ccc(-c2cc(C(=O)NCc3cnn(C)c3C)c3cc(Br)ccc3n2)cc1 8.78%
Cc1ccc(NC2=C(c3ccc(C(F)(F)F)cc3)C(=O)c3ccccc32)cc1C -1.39%
CC(=O)Nc1ccc(C(=O)CSc2nnc(-c3ccccc3)n2-c2ccccc2)cc1 -3.35%
COc1ccc(CCN2C(=O)c3oc4cc(C)cc(C)c4c(=O)c3C2c2ccc(F)cc2)cc1OC (centres undefined) 3.66%
COc1ccccc1N1CCN(C(=O)c2ccc(CS(=O)c3ccccc3C)o2)CC1 (centres undefined) 10.3%
O=C(NCC(c1cccnc1)N1CCc2ccccc2C1)c1ccc(F)c(F)c1 (centres undefined) 8.86%
O=C(Nc1ccc(Cl)cc1)C1CCN(c2nc3ccccc3nc2C(F)(F)F)CC1 -14.8%
O=C(NC1CC1)c1ccc(Cn2c(SCc3cccc(F)c3)nc3cccnc32)cc1 -3.78%
Cn1cc(S(=O)(=O)c2cccc(Cl)c2)c(=O)c2cc(F)c(N3CCCCCC3)cc21 -6.03%
Cc1ccc(C(=O)N2CCc3cc(CNS(=O)(=O)c4ccc(Cl)s4)ccc32)cc1 -1.66%
CCOc1ccc(NC(=O)c2ccc3c(SCC(=O)O)c4c(nc3c2)CCCC4)cc1 40%
CC1=C(C(=O)Nc2ccc(C)cc2C)C(c2ccccc2[N+](=O)[O-])n2ncc(C(=O)Nc3ccccc3)c2N1 (centres undefined) -31.7%
CCOC(=O)C1CCCN(C(=O)c2ccc3c(c2)N(Cc2ccccc2)C(=O)c2ccccc2S3(=O)=O)C1 (centres undefined) -3.76%
Fc1ccc(-c2nc(Nc3ccc(F)c(Cl)c3)nc3c2COc2ccccc2-3)cc1 11.6%
Cn1cc(S(=O)(=O)c2ccc(Cl)cc2)c(=O)c2cc(F)c(N3CCCCCC3)cc21 -6.77%
Cc1ccc(NC(=O)CCSCCc2ccccn2)cc1 0.286%
O=C(COc1ccccc1F)Nc1ccc(C(=O)OCc2cc(=O)n3nc(C4CC4)sc3n2)cc1 -9.65%
Cc1ccn2c(c1)nc(=O)c1cc(S(=O)(=O)N3CCC(C)CC3)c(Cl)cc12 -7.13%
O=C(Nc1ccc(Cl)cc1)C1CCN(c2nc3ccccc3n3cccc23)CC1 -9.81%
CC(C)(C)OC(=O)N1CCC(c2c(C(=O)NCc3ccc4c(c3)OCO4)cnn2-c2ccc(F)cc2F)CC1 -13.1%
CCC(Oc1ccccc1F)C(=O)Nc1c(C(=O)c2ccccc2)oc2ccccc12 (centres undefined) -7.4%
CCC(C(=O)Nc1cccc(-c2cn3cccnc3n2)c1)c1ccccc1 (centres undefined) -5.07%
Cc1ccc(-c2noc(CN(C3CCCCC3)S(=O)(=O)c3ccc(C)cc3)n2)cc1 -7.95%
Cc1nn(-c2ccc3nncn3n2)c(C)c1CCC(=O)Nc1ccc(OC(F)(F)F)cc1 19.2%
COc1cc(C(=O)NCC(c2cccnc2)N2CCN(c3ccc(F)cc3)CC2)cc(OC)c1OC (centres undefined) 1.45%
Cc1cccc(-c2nc3c(C#N)c[nH]n3c2NC2CCCCC2)c1 -0.994%
COc1ccc(CCNC(=O)NCc2noc3ccccc23)c(OC)c1 -3.86%
CC1=C(C(=O)Nc2ccc(C)cc2C)C(c2ccccc2C)n2ncnc2N1 (centres undefined) -9.92%
CN(C)c1ccc(C(CNS(=O)(=O)c2ccc(Cl)cc2)N2CCCC2)cc1 (centres undefined) -1.88%
CC(C)NCC(O)c1ccc(NS(C)(=O)=O)cc1 (centres undefined) -13.4%
COc1cccc(-c2nnc3n(Cc4ccc(F)cc4)c(=O)c4ccccc4n23)c1 11.1%
COc1ccccc1CNC(=O)C1CCN(Cc2nc(-c3ccc(OC)c(OC)c3)oc2C)CC1 4.08%
Cc1ccccc1CNC(=O)c1ccc(-n2c(C)cc3c2CCCC3)cc1 -26.9%
CO[C@H]1C=CC=C(C)C(=O)NC2=CC(=O)C(NCCN(C)C)=C(C[C@@H](C)C[C@H](OC)[C@@H](O)[C@@H](C)C=C(C)[C@@H]1OC(N)=O)C2=O -6.53%
Cc1ccc(OCCn2c(-c3ccc(Cl)cc3)nc3ccccc3c2=O)c(C)c1 -15.7%
COCCNC(=O)c1ccc(Cn2c(SCC(=O)NC(C)C)nc3ccccc3c2=O)cc1 -6.81%
CCCN(C(=O)c1cc2c(Cl)nc3ccccc3c2s1)c1cccc(C)c1 -9.35%
CCOc1ccccc1-c1nnc(SCc2ccc(Cl)cc2)o1 12.5%
COc1ccc(OC)c(NC(=O)c2csnn2)c1 -1.96%
CC1=C(C(=O)Nc2ccc(C)cc2C)C(c2sccc2C)n2ncnc2N1 (centres undefined) 6.09%
COc1ccc(-n2c(SCC(=O)N3CCC(C)CC3)nc3c([nH]c4ccccc43)c2=O)cc1 2.51%
COc1ccc(-c2cc3nc(C4CCN(C(=O)OC(C)(C)C)CC4)c(C(=O)Nc4cc(Cl)cc(Cl)c4)cn3n2)cc1 -14.8%
COc1ccc(CNC(=O)c2ccc3c(c2)N(Cc2ccccc2)C(=O)c2ccccc2S3(=O)=O)cc1 -31.2%
CCOc1ccccc1N(C)C(=O)c1nn(-c2ccc(C)cc2)c(=O)c2c1c1ccccc1n2C -0.373%
Cc1ccc2occ(CC(=O)Nc3nnc(C(C)C)s3)c2c1 1.12%
O=C(Nc1nnc(S(=O)(=O)N2CCCc3ccccc32)s1)c1ccccc1Br -2.52%
CCOc1cccc(C2c3c(oc4ccccc4c3=O)C(=O)N2c2nc(C)c(C(=O)OC)s2)c1 (centres undefined) 3.99%
COc1ccc2cccc(CCNC(C)=O)c2c1 6.84%
Cc1ccc(NC(=O)Cn2c(CCC(=O)O)ccc2-c2cccs2)cc1 8.52%
COc1cccc(N2CCN(c3nc4ccc(C(=O)c5ccccc5)cc4n4c(C)nnc34)CC2)c1 -3.89%

Source: PubChem BioAssay AID1963576 (National Center for Advancing Translational Sciences (NCATS), 2024)
